From PubChem BioAssay AID686978 (National Center for Advancing Translational Sciences (NCATS), 2013)
Screen size: about 420,000 compounds; about 64,000 (15%) were called active. The shares of active, inactive and inconclusive entries below differ from those in the screen. Calls follow the shape of the dose curve; as a rule, active = well fitted inhibition curve with a large enough effect; inconclusive = small, poorly fitted or top-dose-only effect; inactive = flat fitted curve, though single readings scatter. Potencies of inconclusive entries are left out as doubtful fits.
% is scaled to controls: 0 for no effect and ±100 for the full control effect; potency is read from the fitted curve at half-maximal effect; tags tell the direction and shape of the fitted curve.

Test: qHTS for Inhibitors of human tyrosyl-DNA phosphodiesterase 1 (TDP1): qHTS in cells in absence of CPT; also: nearly all actives have a fitted effect of over 55% in size
Conditions: DT40 Tdp1-/- hTDP1 cells, no CPT, ATP luminescence, 48 h; activity change, negative = growth inhibition: at 46.2 µM (top of the series) unless noted
Method in brief: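 Chicken DT40 Tdp1-/- cells stably complemented with human TDP1 were seeded at 400 cells/well with DMSO in place of 20 nM camptothecin. After compound pinning, cells grew at least 48 hr at 37 °C; viability read by CellTiter-Glo luminescence.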
For `Cc1ccc(CCNC(=O)Cn2nc(-c3ccc(C)cc3)ccc2=O)cc1`, the Potency was inconclusive [inhibitor, single point].
In the case of `O=C(Nc1ccc(O)cc1C(=O)O)c1ccc(NC(=O)c2ccco2)cc1`, the Potency is reported as inconclusive [inhibitor, single point].
With `CC(/C=N/NC(=O)CCn1nnc2ccccc21)=C\c1ccccc1` the Potency was inconclusive [inhibitor, single point].
For `CC1(C)CC2CC(C)(CN2c2ncnc3ccccc23)C1` (stereo unspecified), the Potency was active: 9.2 µM.
In the case of `CN(Cc1ccccc1O)CC1CCCN(CCc2ccc(Cl)cc2)C1` (stereo unspecified), the Potency is reported as inconclusive [inhibitor, single point].
In the case of `Cc1ccc2ncnc(Nc3ccccc3)c2c1`, the Potency is reported as inconclusive [inhibitor, partial curve].
With `CC1(C)CC(=O)C(C=NC(CCC(N)=O)C(=O)O)=C(O)C1` (stereo unspecified) the activity change, negative = growth inhibition was inconclusive: -32.9% [inhibitor].
For `O=C(C[C@H]1C/C=C\CC[C@H](Cc2ccc(F)cc2)C(=O)OCCNC1=O)NCCO`, the “activity change, negative = growth inhibition” value was inactive: 2.39%.
For `CCOc1ccc(Cl)cc1S(=O)(=O)n1cnc2cc(C)c(C)cc21`, the Potency was inconclusive [inhibitor, single point].
With `CCCC[C@H](CC(=O)c1ccccc1)[C@@H](OC(C)=O)C(=O)Oc1c(C(C)C)cccc1C(C)C` the Potency was inconclusive [inhibitor, single point].
With `CSc1cccc(Nc2nc3c(S(=O)(=O)c4ccccc4)nnn3c3ccc(Cl)cc23)c1` the Potency was inconclusive [inhibitor, single point].
In the case of `COc1ccc(NS(=O)(=O)c2cccc(NC(=O)CCS(=O)(=O)c3ccccc3)c2)cc1`, the Potency is reported as inconclusive [inhibitor, partial curve].
For `CCNc1nc(NC(C)C)nc(N(C#N)CCOc2ccc(Cl)cc2Cl)n1`, the Potency was inconclusive [inhibitor, single point].
For `COc1ccc(OC)c(NC(=O)/C=C/c2ccccc2[N+](=O)[O-])c1`, the Potency was inconclusive [inhibitor, single point].
In the case of `COc1ccc(-n2cc(-c3ccccc3)c3c(NN4CCOCC4)ncnc32)cc1`, the Potency is reported as active: 16.4 µM.
For `CC(C(=O)c1ccccc1)[n+]1cccc(C(N)=O)c1` (stereo unspecified), the “activity change, negative = growth inhibition” value was inactive: -6.64%.
In the case of `COc1ccc(C(=O)N/C(=C\c2ccc(SC)cc2)C(=O)NCCCn2ccnc2)cc1OC`, the “activity change, negative = growth inhibition” value is reported as inactive: -18.4%.
With `COc1ccc(NC(=O)N2CCN(C(=O)Nc3ccc(OC)cc3)CC2)cc1` the Potency was inconclusive [inhibitor, single point].
In the case of `Cc1nnc(NC(=O)CSc2ccccc2N)s1`, the “activity change, negative = growth inhibition” value is reported as inactive: 8.29%.
For `Cc1cc(C)c(NC(=O)CNC(=O)c2ccccc2OCc2c(C)noc2C)c(C)c1`, the “activity change, negative = growth inhibition” value was inactive: -25.9%.
For `CC(NC(=O)c1ccc2ccccc2n1)c1ccccc1` (stereo unspecified), the Potency was inconclusive [inhibitor, single point].
With `CC1(C)CC(=O)C(C(c2cccc([N+](=O)[O-])c2)C2C(=O)CC(C)(C)CC2=O)C(=O)C1` the activity change, negative = growth inhibition was inconclusive: -30.4% [inhibitor].
In the case of `O=[N+]([O-])c1ccc(N/N=C\c2cccn2-c2ccccc2)nc1`, the Potency is reported as inconclusive [inhibitor, single point].
With `O=C(CCCc1ccccc1)Nc1cccnc1` the “activity change, negative = growth inhibition” value was inactive: -16.8%.
With `CCCc1cc(NCCCN(C)C)n2c(nc3ccccc32)c1C#N` the Potency was inconclusive [inhibitor, single point].
For `CSCCC(NC(=O)C1CCCC1)c1nnc2ccccn12` (stereo unspecified), the “activity change, negative = growth inhibition” value was inactive: -2.24%.
For `CCOc1ccc(NC(=S)c2ccc3ccccc3n2)cc1`, the Potency was inconclusive [inhibitor, single point].
In the case of `COc1ccccc1NC(=O)c1cccc(S(=O)(=O)N2CCCCCC2)c1`, the Potency is reported as inconclusive [inhibitor, single point].
With `Cc1c(C(=O)N(Cc2nccn2C)C(C)C)oc2c(F)cccc12` the “activity change, negative = growth inhibition” value was inactive: -27.7%.
For `CC(=O)Nc1ccc(NC(=O)COC(=O)c2ccc(C)s2)cc1`, the Potency was inconclusive [inhibitor, single point].
In the case of `CCCCNCCOCCOc1ccc(C)cc1Br`, the Potency is reported as active: 23.1 µM.
In the case of `Cc1sc(NC(=O)CN2CCOCC2)c(C(=O)c2ccccc2)c1C`, the Potency is reported as inconclusive [inhibitor, partial curve].
With `O=C(N/N=C/c1ccccc1O)C1(O)c2ccccc2-c2ccccc21` the Potency was active: 5.8 µM.
With `CCc1ccc(CNC(=O)c2ccc(NC(=O)N3CCCCc4ccccc43)cc2)cc1` the Potency was inconclusive [inhibitor, single point].
In the case of `COc1ccc(C2CCCN2C(=S)Nc2ccccc2C)cc1OC` (stereo unspecified), the Potency is reported as inconclusive [inhibitor, single point].
In the case of `O=C(Nc1cccc(S(=O)(=O)NC2=NCCCCC2)c1)c1cc(-c2ccco2)nc2ccccc12`, the Potency is reported as active: 9.2 µM.
In the case of `COc1ccccc1OCC(=O)Nc1cccc(-c2nc3ccccc3o2)c1`, the Potency is reported as inconclusive [inhibitor, single point].
With `COc1ccc(-c2ccc(=O)n(CC(=O)NC3CCc4ccccc43)n2)cc1OC` (stereo unspecified) the “activity change, negative = growth inhibition” value was inactive: 4.68%.
In the case of `Cc1[nH]n(-c2cccc3ccccc23)c(=O)c1C=Nc1ccc2[nH]c(=O)[nH]c2c1`, the “activity change, negative = growth inhibition” value is reported as inactive: -14.1%.
With `Cc1cc(C)nc(NS(=O)(=O)c2ccc(N/C=C\C(=O)c3cccs3)cc2)n1` the Potency was inconclusive [inhibitor, single point].
With `Clc1cccc(Cc2c(-c3ccco3)nc3ccc(Cl)cn23)c1` the Potency was active: 23.1 µM.
For `Cc1ccc(S(=O)(=O)N2CCCCC2)cc1C(=O)OCC(=O)NC(=O)NC12CC3CC(CC(C3)C1)C2`, the “activity change, negative = growth inhibition” value was inactive: -27.7%.
For `CCCCCCN1CC(=O)N2[C@@H](Cc3c([nH]c4ccccc34)C2(C)C)C1=O`, the Potency was inconclusive [inhibitor, partial curve].
With `CC1CC(CCN)(c2ccccc2)C(C)CN1C` (stereo unspecified) the “activity change, negative = growth inhibition” value was inactive: -0.0005%.
With `COc1cccc(OCC(=O)Nc2ccccc2C(N)=O)c1` the Potency was inconclusive [inhibitor, partial curve].
In the case of `CC(C)(NS(=O)(=O)OCC(Cl)(Cl)Cl)c1ccccc1`, the “activity change, negative = growth inhibition” value is reported as inactive: -4.2%.
With `COCc1cc(C)nc2sc(C(=O)N3CCN(c4ccccc4)CC3)c(N)c12` the Potency was inconclusive [inhibitor, single point].
With `CC1(CC(=O)N/N=C/c2cc([N+](=O)[O-])c(O)cc2O)OCCO1` the Potency was inconclusive [inhibitor, single point].
In the case of `Cc1ccc(F)c(S(=O)(=O)NC(=O)C2(C)CCN2C(=O)C2(c3ccc(Cl)cc3)CCC2)c1` (stereo unspecified), the Potency is reported as inconclusive [inhibitor, single point].
For `O=c1ccc2[n+]([O-])c3ccc(O)cc3oc-2c1`, the Potency was inconclusive [inhibitor, partial curve, poor fit].
For `Cc1ccc(N(CC(=O)NC2CCCC2)C(=O)CCC(=O)Nc2nccs2)c(C)c1`, the activity change, negative = growth inhibition was inconclusive: -30.5% [inhibitor].
With `Cc1c(Cl)cccc1NC(=O)Nc1nnc(N2CCCCCC2)s1` the “activity change, negative = growth inhibition” value was inactive: -15.9%.
For `COc1ccc(CCNC(=O)[C@@H](NC(=O)N2CCn3c2nc2ccccc23)C(C)C)cc1OC`, the Potency was inconclusive [inhibitor, partial curve].
For `Cc1ccccc1C(=O)NNC(=O)C1CCN(C(=O)Nc2ccccc2)CC1`, the “activity change, negative = growth inhibition” value was inactive: -4.44%.
With `O=C(c1ccc(CNc2c(N3CCOCC3)c(=O)c2=O)cc1)N1CC=C(c2ccccc2)CC1` the Potency was inconclusive [inhibitor, single point].
With `O=C(CSc1nc(=O)n2ccccc2n1)N1CCC(Cc2ccccc2)CC1` the Potency was inconclusive [inhibitor, single point].
With `CC1=C(C(=O)Nc2cc(-c3cccc(F)c3)[nH]n2)C2(CCCCC2)OC1=O` the Potency was inconclusive [inhibitor, single point].
For `C=C(C)CSc1nc2sc3c(c2c(=O)n1-c1ccccc1)CC(C(C)C)OC3` (stereo unspecified), the “activity change, negative = growth inhibition” value was inactive: 2.02%.
For `CC(=O)c1cnc2nc(SCc3ccccc3C)nn2c1C`, the Potency was inconclusive [inhibitor, single point].
With `O=C(Nc1c(Cl)ccc2nsnc12)c1ccc([N+](=O)[O-])o1` the Potency was inconclusive [inhibitor, single point].
In the case of `Cc1cccc(C)c1NC(=S)N1CCC(c2ccccc2)C1` (stereo unspecified), the Potency is reported as inconclusive [inhibitor, single point].
For `CC(=O)c1ccc(S(=O)(=O)N(C)CCCC(=O)N(C)Cc2ccccc2F)cc1`, the Potency was inconclusive [inhibitor, single point].
In the case of `Cc1ccc(Cn2ccc(NC(=O)c3noc4c3CCCCC4)n2)cc1`, the Potency is reported as inconclusive [inhibitor, single point].
In the case of `Cc1ccc(C)c(NS(=O)(=O)c2cc(C(=O)NCc3ccncc3)ccc2C)c1`, the activity change, negative = growth inhibition is reported as inconclusive: -33.4% [inhibitor].
In the case of `C[C@@H]1CN([C@H](C)CO)C(=O)CCCn2nncc2CO[C@H]1CN(C)Cc1ccc(C(F)(F)F)cc1`, the “activity change, negative = growth inhibition” value is reported as inactive: -2.26%.
With `CN(c1ccccc1)S(=O)(=O)c1cc(C(=O)OCC(N)=O)ccc1Cl` the Potency was inconclusive [inhibitor, single point].
In the case of `COc1cc(OC)cc(C(=O)/C=C2\Sc3ccccc3N2C)c1`, the “activity change, negative = growth inhibition” value is reported as inactive: 0.136%.
In the case of `CCCN1C(=O)/C(=C/c2ccncc2)SC1=S`, the Potency is reported as inconclusive [inhibitor, single point].
With `CCN(c1ccccc1)S(=O)(=O)c1ccc(C(=O)Nc2ncccc2C)cc1` the “activity change, negative = growth inhibition” value was inactive: -10.1%.
In the case of `CCOc1ccc(S(=O)(=O)NCc2csc(C)n2)cc1`, the “activity change, negative = growth inhibition” value is reported as inactive: -26.3%.
With `CCC1CN(C(=O)N2CCC(C(=O)NCc3cccc(C)c3)CC2)c2ccccc2O1` (stereo unspecified) the Potency was active: 20.6 µM.
